# The list shows a part of the results.
# Experiments:
# Assay in all cases: glycan array binding signal (z-score within array); higher = stronger binding
# Conditions in all cases: glycan notation: IUPAC condensed, linker removed
# [1] = molecular target: Man(a1-2)Man(a1-3)[Man(a1-2)Man(a1-6)]Man
# Method in brief: (§1)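 Glycan array data came from 3228 arrays in the Consortium for Functional Glycomics database, and only arrays with an available protein sequence were kept. Glycan names were put into IUPAC-condensed notation, and columns mapping to the same glycan were averaged. The binding signal is a within-array Z-score, averaged across arrays of one protein sequence run at different concentrations or buffers and across linkers. A negative Z-score can be read as non-binding.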
# [2] = molecular target: Man(a1-2)Man(a1-3)[Man(a1-2)Man(a1-6)]Man(a1-6)[Man(a1-2)Man(a1-2)Man(a1-3)]Man
# Method in brief: as §1
# [3] = molecular target: Man(a1-2)Man(a1-3)[Man(a1-2)Man(a1-6)]Man(a1-6)[Man(a1-2)Man(a1-2)Man(a1-3)]Man(b1-4)GlcNAc(b1-4)GlcNAc
# Method in brief: as §1
# [4] = molecular target: Man(a1-2)Man(a1-3)[Man(a1-6)]Man(a1-6)[Man(a1-2)Man(a1-3)]Man(b1-4)GlcNAc(b1-4)GlcNAc
# Method in brief: as §1
# [5] = molecular target: Man(a1-2)Man(a1-6)[Man(a1-3)]Man(a1-6)[Man(a1-2)Man(a1-2)Man(a1-3)]Man
# Method in brief: as §1
# [6] = molecular target: Man(a1-2)Man(a1-6)[Man(a1-3)]Man(a1-6)[Man(a1-2)Man(a1-2)Man(a1-3)]Man(b1-4)GlcNAc(b1-4)GlcNAc
# Method in brief: as §1
# [7] = molecular target: Man(a1-3)[Man(a1-6)]Man
# Method in brief: as §1
# [8] = molecular target: Man(a1-3)[Man(a1-6)]Man(a1-6)[Man(a1-2)Man(a1-3)]Man(b1-4)GlcNAc(b1-4)GlcNAc
# Method in brief: as §1
# [9] = molecular target: Man(a1-3)[Man(a1-6)]Man(a1-6)[Man(a1-3)]Man
# Method in brief: as §1
# [10] = molecular target: Man(a1-3)[Man(a1-6)]Man(a1-6)[Man(a1-3)]Man(b1-4)GlcNAc(b1-4)GlcNAc
# Method in brief: as §1
# [11] = molecular target: Man(a1-3)[Man(a1-6)]Man(b1-4)GlcNAc(b1-4)GlcNAc
# Method in brief: as §1
# [12] = molecular target: Man(a1-3)[Man(a1-6)]Man(b1-4)GlcNAc(b1-4)[Fuc(a1-6)]GlcNAc
# Method in brief: as §1
# [13] = molecular target: Man(a1-6)Man
# Method in brief: as §1
# [14] = molecular target: Man(b1-4)GlcNAc
# Method in brief: as §1
# [15] = molecular target: MurNAc(b1-4)GlcNAc
# Method in brief: as §1
# [16] = molecular target: Neu5Ac(a2-3)Gal
# Method in brief: as §1
# [17] = molecular target: Neu5Ac(a2-3)Gal(b1-3)GalNAc
# Method in brief: as §1
# [18] = molecular target: Neu5Ac(a2-3)Gal(b1-3)GalNAc(b1-3)Gal(a1-4)Gal(b1-4)Glc
# Method in brief: as §1
# [19] = molecular target: Neu5Ac(a2-3)Gal(b1-3)GalNAc(b1-4)[Neu5Ac(a2-3)]Gal(b1-4)Glc
# Method in brief: as §1
# [20] = molecular target: Neu5Ac(a2-3)Gal(b1-3)GalNAc(b1-4)[Neu5Ac(a2-8)Neu5Ac(a2-3)]Gal(b1-4)Glc
# Method in brief: as §1
# [21] = molecular target: Neu5Ac(a2-3)Gal(b1-3)GalNAc6S
# Method in brief: as §1
# [22] = molecular target: Neu5Ac(a2-3)Gal(b1-3)GlcNAc
# Method in brief: as §1
# [23] = molecular target: Neu5Ac(a2-3)Gal(b1-3)GlcNAc(b1-2)Man
# Method in brief: as §1
# [24] = molecular target: Neu5Ac(a2-3)Gal(b1-3)GlcNAc(b1-2)Man(a1-3)[GlcNAc(b1-4)][Neu5Ac(a2-3)Gal(b1-3)GlcNAc(b1-2)Man(a1-6)]Man(b1-4)GlcNAc(b1-4)GlcNAc
# Method in brief: as §1
# [25] = molecular target: Neu5Ac(a2-3)Gal(b1-3)GlcNAc(b1-2)Man(a1-3)[Neu5Ac(a2-3)Gal(b1-3)GlcNAc(b1-2)Man(a1-6)]Man(b1-4)GlcNAc(b1-4)GlcNAc
# Method in brief: as §1
# [26] = molecular target: Neu5Ac(a2-3)Gal(b1-3)GlcNAc(b1-3)Gal(b1-3)GlcNAc
# Method in brief: as §1
# [27] = molecular target: Neu5Ac(a2-3)Gal(b1-3)GlcNAc(b1-3)Gal(b1-4)GlcNAc
# Method in brief: as §1
# [28] = molecular target: Neu5Ac(a2-3)Gal(b1-3)GlcNAc(b1-3)GalNAc
# Method in brief: as §1
# [29] = molecular target: Neu5Ac(a2-3)Gal(b1-3)GlcNAc(b1-4)Gal(b1-4)Glc
# Method in brief: as §1
# [30] = molecular target: Neu5Ac(a2-3)Gal(b1-3)GlcNAc(b1-6)GalNAc
# Method in brief: as §1
# [31] = molecular target: Neu5Ac(a2-3)Gal(b1-3)GlcNAc6S
# Method in brief: as §1
# [32] = molecular target: Neu5Ac(a2-3)Gal(b1-3)[Fuc(a1-4)]GlcNAc
# Method in brief: as §1
# [33] = molecular target: Neu5Ac(a2-3)Gal(b1-3)[Fuc(a1-4)]GlcNAc(b1-3)Gal(b1-3)[Fuc(a1-4)]GlcNAc
# Method in brief: as §1
# [34] = molecular target: Neu5Ac(a2-3)Gal(b1-3)[Fuc(a1-4)]GlcNAc(b1-3)Gal(b1-4)[Fuc(a1-3)]GlcNAc
# Method in brief: as §1
# [35] = molecular target: Neu5Ac(a2-3)Gal(b1-3)[GlcNAc(b1-6)]GalNAc
# Method in brief: as §1
# [36] = molecular target: Neu5Ac(a2-3)Gal(b1-3)[Neu5Ac(a2-3)Gal(b1-4)]GlcNAc
# Method in brief: as §1
# [37] = molecular target: Neu5Ac(a2-3)Gal(b1-3)[Neu5Ac(a2-6)]GalNAc
# Method in brief: as §1
# [38] = molecular target: Neu5Ac(a2-3)Gal(b1-3)[Neu5Ac(a2-6)]GlcNAc(b1-3)[Fuc(a1-3)[Gal(b1-4)]GlcNAc(b1-6)]Gal(b1-4)Glc
# Method in brief: as §1
# [39] = molecular target: Neu5Ac(a2-3)Gal(b1-3)]Neu5Ac(a2-3)Gal(b1-4)]GlcNAc
# Method in brief: as §1
# [40] = molecular target: Neu5Ac(a2-3)Gal(b1-4)Glc
# Method in brief: as §1
# [41] = molecular target: Neu5Ac(a2-3)Gal(b1-4)GlcNAc
# Method in brief: as §1
# [42] = molecular target: Neu5Ac(a2-3)Gal(b1-4)GlcNAc(b1-2)Man
# Method in brief: as §1
# [43] = molecular target: Neu5Ac(a2-3)Gal(b1-4)GlcNAc(b1-2)Man(a1-3)[GlcNAc(b1-2)Man(b1-4)GlcNAc(b1-2)Man(a1-6)]Man(b1-4)GlcNAc(b1-4)GlcNAc
# Method in brief: as §1
# [44] = molecular target: Neu5Ac(a2-3)Gal(b1-4)GlcNAc(b1-2)Man(a1-3)[GlcNAc(b1-4)][Neu5Ac(a2-3)Gal(b1-4)GlcNAc(b1-2)Man(a1-6)]Man(b1-4)GlcNAc(b1-4)GlcNAc
# Method in brief: as §1
# [45] = molecular target: Neu5Ac(a2-3)Gal(b1-4)GlcNAc(b1-2)Man(a1-3)[Neu5Ac(a2-3)Gal(b1-4)GlcNAc(b1-2)Man(a1-6)]Man(b1-4)GlcNAc(b1-4)GlcNAc
# Method in brief: as §1
binder,measurement,setting,value
"AAL (Agrocybe aegerita), Q6WY08 (protein) MQGVNIYNISAGTSVDLAAPVTTGDIVTFFSSALNLNAGAGNPNNTTLNLFAENGAYLLHIAFRLQENVIIFNSRQPDGPWLVEQRVSDVANQFAGIDGKAMVTVFDHGDKYQVVINEKTVIQYTKQISGLTLSLSYNATEETSIFSTVVEAVTYTGLALEHHHHHH",glycan array binding signal (z-score),[1],-0.155
same,glycan array binding signal (z-score),[2],-0.153
same,glycan array binding signal (z-score),[3],-0.134
same,glycan array binding signal (z-score),[4],-0.156
same,glycan array binding signal (z-score),[5],-0.143
same,glycan array binding signal (z-score),[6],-0.162
same,glycan array binding signal (z-score),[7],-0.16
same,glycan array binding signal (z-score),[8],-0.153
same,glycan array binding signal (z-score),[9],-0.123
same,glycan array binding signal (z-score),[10],-0.118
same,glycan array binding signal (z-score),[11],-0.158
same,glycan array binding signal (z-score),[12],-0.164
same,glycan array binding signal (z-score),[13],-0.137
same,glycan array binding signal (z-score),[14],-0.153
same,glycan array binding signal (z-score),[15],-0.161
same,glycan array binding signal (z-score),[16],-0.138
same,glycan array binding signal (z-score),[17],1.14
same,glycan array binding signal (z-score),[18],1.72
same,glycan array binding signal (z-score),[19],0.132
same,glycan array binding signal (z-score),[20],-0.106
same,glycan array binding signal (z-score),[21],0.751
same,glycan array binding signal (z-score),[22],-0.15
same,glycan array binding signal (z-score),[23],-0.118
same,glycan array binding signal (z-score),[24],-0.166
same,glycan array binding signal (z-score),[25],-0.144
same,glycan array binding signal (z-score),[26],-0.155
same,glycan array binding signal (z-score),[27],-0.157
same,glycan array binding signal (z-score),[28],-0.134
same,glycan array binding signal (z-score),[29],-0.129
same,glycan array binding signal (z-score),[30],-0.129
same,glycan array binding signal (z-score),[31],-0.147
same,glycan array binding signal (z-score),[32],-0.161
same,glycan array binding signal (z-score),[33],-0.152
same,glycan array binding signal (z-score),[34],-0.132
same,glycan array binding signal (z-score),[35],-0.033
same,glycan array binding signal (z-score),[36],-0.158
same,glycan array binding signal (z-score),[37],-0.123
same,glycan array binding signal (z-score),[38],-0.141
same,glycan array binding signal (z-score),[39],-0.153
same,glycan array binding signal (z-score),[40],-0.125
same,glycan array binding signal (z-score),[41],-0.111
same,glycan array binding signal (z-score),[42],-0.141
same,glycan array binding signal (z-score),[43],5.88
same,glycan array binding signal (z-score),[44],1.77
same,glycan array binding signal (z-score),[45],1.8

# Reference: the supplement of paper PMC8728848
